According to paper PMC4336329 (PLoS ONE, 2015):
The whole screen tested about 310,000 compounds, of which about 2,200 (0.71%) showed an effect of 50% or more. The effect is printed as a negative number. Some of the results follow.

These molecules were tested against human ether-à-go-go-related gene (hERG) potassium channel (human, UniProt Q12809) (assay: primary screen, population patch clamp on CHO cells stably expressing hERG).
Chain of human ether-à-go-go-related gene (hERG) potassium channel (Q12809 whole entry, looked up): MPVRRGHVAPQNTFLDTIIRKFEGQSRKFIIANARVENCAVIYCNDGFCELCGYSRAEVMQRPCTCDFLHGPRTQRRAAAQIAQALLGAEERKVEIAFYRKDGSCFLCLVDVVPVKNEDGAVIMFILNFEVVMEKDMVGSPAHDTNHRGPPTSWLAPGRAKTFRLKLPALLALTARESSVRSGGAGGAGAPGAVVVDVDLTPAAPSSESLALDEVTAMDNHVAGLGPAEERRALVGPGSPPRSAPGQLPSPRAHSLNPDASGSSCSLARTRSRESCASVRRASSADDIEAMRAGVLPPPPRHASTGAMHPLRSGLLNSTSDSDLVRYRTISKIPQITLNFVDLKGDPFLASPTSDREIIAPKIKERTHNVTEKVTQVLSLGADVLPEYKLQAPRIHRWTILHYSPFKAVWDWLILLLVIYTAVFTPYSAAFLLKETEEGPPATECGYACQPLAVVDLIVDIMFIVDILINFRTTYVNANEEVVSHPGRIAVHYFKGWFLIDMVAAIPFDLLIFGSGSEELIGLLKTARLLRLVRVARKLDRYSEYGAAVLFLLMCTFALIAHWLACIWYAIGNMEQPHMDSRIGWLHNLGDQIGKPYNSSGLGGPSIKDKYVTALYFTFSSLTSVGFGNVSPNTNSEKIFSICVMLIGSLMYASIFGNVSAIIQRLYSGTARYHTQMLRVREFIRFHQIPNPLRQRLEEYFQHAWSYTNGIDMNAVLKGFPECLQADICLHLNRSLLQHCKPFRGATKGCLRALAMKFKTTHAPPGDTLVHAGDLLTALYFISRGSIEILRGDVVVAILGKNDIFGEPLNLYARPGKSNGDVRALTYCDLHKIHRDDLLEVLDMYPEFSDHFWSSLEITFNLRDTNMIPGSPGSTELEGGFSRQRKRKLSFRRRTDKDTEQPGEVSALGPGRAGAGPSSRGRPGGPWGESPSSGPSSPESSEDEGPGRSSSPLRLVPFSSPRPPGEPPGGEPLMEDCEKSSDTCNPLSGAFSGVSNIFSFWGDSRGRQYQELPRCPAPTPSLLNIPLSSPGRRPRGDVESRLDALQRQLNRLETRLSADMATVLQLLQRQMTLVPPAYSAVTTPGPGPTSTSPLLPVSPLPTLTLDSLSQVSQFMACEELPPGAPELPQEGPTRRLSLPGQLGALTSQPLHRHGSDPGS

SMILES	hERG current change (%, negative = inhibition) at 1uM
CCC(=O)Nc1ccc(N2CCN(S(C)(=O)=O)CC2)cc1	17.9%
Cn1ncc2c(NCc3ccccc3)ncnc21	3.49%
O=c1/c(=C/c2ccccc2)sc2nnc(-c3cccs3)n12	9.08%
CCN1/C(=C/c2ccc3cccc(C)c3[n+]2CC)Sc2ccccc21.[I-]	-76.4%
Cc1c(C(=O)O)cccc1-c1ccc(/C=N/n2cnnc2)o1	11.4%
CSc1oc(-c2ccccc2)nc1S(=O)(=O)c1ccc(F)cc1	2.24%
Cc1ccc2[nH]cc(CCNC(=O)C3CCCO3)c2c1 (centres unmarked)	14.3%
COc1ccc(S(=O)(=O)N2CCOCC2)cc1C(=O)N1CCCCCC1	4.83%
O=C(c1ccc2c(=O)n(-c3ccccc3)c(=S)[nH]c2c1)N1CCN(c2ccccc2)CC1	4.37%
O=C(NCCc1ccc(F)cc1)N[C@@H](Cc1ccccc1)C(=O)O	12.1%
CN(Cc1cccc(F)c1)C(=O)CNS(=O)(=O)c1ccc2ccccc2c1	10%
O=C(CCn1c(=O)oc2ccccc21)Nc1ccc2c(c1)OCCO2	10.7%
Cc1ccc(C2(C)NC(=O)N(CC(=O)NC(=O)NCCC(C)C)C2=O)cc1 (centres unmarked)	8.18%
CCOC(=O)N1CCN(C(=O)c2oc3ccc(S(=O)(=O)N4CC(C)CC(C)C4)cc3c2C)CC1 (centres unmarked)	0.354%
COc1cccc(/C=C/c2nc3c(cnn3-c3ccccc3)c(=O)[nH]2)c1	9.85%
O=C(Nc1cccnc1Cl)c1cc([N+](=O)[O-])ccc1Cl	11.9%
Cc1ccc(C(=O)NC2CC(C)(C)NC(C)(C)C2)cc1Cl	12.4%
CCOc1ccc(NC(=O)CSc2nc(C3CC3)nc3ccccc23)cc1	16.7%
Cc1cc(NC(=O)COc2ccccc2C#N)no1	10.3%
Cc1cccc(N(C)C(=O)C2CCCN2S(=O)(=O)c2cccc3nsnc23)c1 (centres unmarked)	15%
COC(=O)c1cn(C(=O)c2ccccc2Cl)c2ccccc12	-19.9%
Cc1ccc(O)c(C(=O)/C=C/c2ccc3c(c2)OCCCO3)c1	-2.95%
Cc1ccc2c(cnn2C(=O)CCCC(=O)NCc2cccc(F)c2)c1	13.1%

SMILES	hERG current change (%, negative = inhibition) at 1uM
CC(C)c1[nH]nc2c1C(c1ccco1)C(C#N)=C(N)O2 (centres unmarked)	9.51%
S=C(Nc1cc(Cl)cc(Cl)c1)NC1CCN(Cc2ccccc2)CC1	5.58%
O=C(CC(c1ccccc1)c1ccccc1O)NCc1ccco1 (centres unmarked)	3.21%
CN1N=C(C(=O)N2CCCC(Nc3ccc(F)c(F)c3)C2)CCC1=O (centres unmarked)	17.7%
CN1CN(c2cccc([N+](=O)[O-])c2)CN=C1N[N+](=O)[O-]	6.81%
CC1=C[C@H]2Cc3cc(C)cc(C)c3S(=O)(=O)[C@@H]2C=C1	9.32%
CCSc1nnc(NC(=O)CSc2nc3c(c(=O)n2-c2ccccc2)SCC3)s1	3.43%
CC(=O)Nc1cccc(C(=O)Nc2cccc3ncccc23)c1	14.1%
COc1cc(/C=N/NC(=O)c2nnn(-c3nonc3N)c2C(C)C)ccc1O	11.5%
O=C1CSC(c2ccccc2)N1CCc1ccccc1 (centres unmarked)	10.3%
Cc1[nH]nc(-c2ccc(O)cc2O)c1-c1ccc(Cl)cc1	-4.13%
CC(=O)Nc1c(C(=O)NCc2ccccc2)nnn1Cc1ccccc1	7.76%
O=C(Cc1ccccc1)Nc1ccc(NC(=O)c2ccco2)nc1	14.1%
CC(=O)Nc1c2c(nn1-c1ccc(C)cc1C)CSC2	7.98%
Cc1cc(SCc2ccc(Br)cc2)nc(=O)[nH]1	15.7%
CCCNCc1cc(Br)ccc1OCC(=O)NCCc1ccccc1	-10.7%
O=C(CN1C(=O)NC2(CCc3ccccc32)C1=O)c1ccc2c(c1)OCCO2 (centres unmarked)	7.73%
CC1(C)Cc2nc(NC3CCCCC3)c(C#N)cc2CO1	4.81%
COc1c(C)cc(C(=O)C2CCCN(C(=O)c3cccc(F)c3)C2)cc1C (centres unmarked)	4.21%
CC(C)CNC(=O)C(=O)Nc1ccc(N(C)C)cc1	9.87%
CC(=O)N/C(=C\c1ccc(F)cc1)C(=O)N(C)C	11.7%
COC1C=CC(CNC(=O)c2cc3c(=O)n4cccc(C)c4nc3n2C)(OC)O1 (centres unmarked)	12.9%
O=[N+]([O-])c1ccc(/C=C/c2ccc3ccccc3n2)cc1	14.2%

SMILES	hERG current change (%, negative = inhibition) at 1uM
C=C[C@@H]1c2cc(C)ccc2N(S(=O)(=O)c2ccc(C)cc2)[C@H](c2ccccc2)C1(C#N)C#N	14.4%
CCCn1nc(NC(C)=O)c2cc3cccc(C)c3nc21	10.6%
Cn1c(Cc2cccc3ccccc23)nnc1SCc1ccc([N+](=O)[O-])cc1	-1.98%
COc1cccc(N2CCN(C(=O)CN(C)S(=O)(=O)c3ccc4c(c3)CCC(=O)N4)CC2)c1	-12%
O=C(c1ccccc1)c1c[nH]c2ccccc12	12.2%
Cc1cc(NC(=O)COc2ccc(Cl)cc2Cl)n(-c2ccccc2)n1	8.96%
O=S(=O)(CCc1nc2ccccc2s1)c1ccc2ccccc2c1	6.61%
COc1ccc2c(c1)CCc1c-2n[nH]c1C(=O)NCCC(C)C	11%
COc1ccc(NS(=O)(=O)c2cc(NC(=O)Cc3c(F)cccc3Cl)ccc2OC)cc1	16.3%
CCc1nnc(NC(=O)CSc2nccn2-c2cc(C)cc(C)c2)s1	6.45%
Cc1cc(C)cc(NC(=O)C2C3C=CC4(O3)C2C(=O)N(CCN2CCCCC2)C4C(=O)NC2CCCCC2)c1 (centres unmarked)	-6.81%
COCCn1c(N)c(C#N)c2nc3ccccc3nc21	2.51%
O=C(CSc1nnc(Cn2c(=O)sc3ccccc32)n1-c1ccccc1)N1CCCC1	2.08%
O=C(CNC(=O)C1COc2ccccc2O1)N/N=C\c1ccc(Br)cc1 (centres unmarked)	-7.2%
COc1ccc(NC2CCCN(C(=O)CN3CCOC3=O)C2)cc1 (centres unmarked)	11.1%
Cc1ccc(C(=O)NCC(=O)N/N=C/c2cccs2)cc1C	9.31%
COCC(=O)N(Cc1cc2cc(OC)ccc2[nH]c1=O)c1ccccc1	11%
O=C(CCc1nnc2ccc(N3CCCCC3)nn12)NCc1ccco1	10%
CC(C)NC(=S)N/N=C/c1ccccc1[N+](=O)[O-]	7.35%
S=C(NCCc1ccc(Cl)cc1)NC1CC1	10%
CCN(CC(=O)Nc1c(F)cccc1F)C(=O)CNC(=O)c1cccc(C)c1	14.7%
c1ccc2c(-c3cncc4ccccc34)cncc2c1	2.76%
CCN(CC)C(=O)Oc1ccnc2cc(Cl)ccc12	5.38%

SMILES	hERG current change (%, negative = inhibition) at 1uM
CC1CC(C)(C)CC2(C1)NC(=O)N(CC(=O)Nc1cc([N+](=O)[O-])ccc1F)C2=O (centres unmarked)	10.9%
CC(C)Cn1c(N)c(C(=O)CSc2n[nH]c(N)n2)c(=O)n(C)c1=O	12.3%
COCCCNC(=O)c1cc2c(=O)n3cccc(C)c3nc2s1	7.68%
COc1ccc([N+](=O)[O-])cc1NC(=O)C(C)OC(=O)C1CCCC1 (centres unmarked)	5.34%
Cl.OCCN1CCN(CC(O)COc2ccc3c(c2)OCO3)CC1 (centres unmarked)	12.3%
CC(CNS(=O)(=O)c1ccccc1)Sc1ncccn1 (centres unmarked)	8.74%
CN(Cc1ccccc1)S(=O)(=O)c1ccc2[nH]c(=O)oc2c1	13.3%
CN(C)S(=O)(=O)c1cc(NC(=O)CN2CCN(c3ccc(O)cc3)CC2)ccc1Cl	5.17%
Nc1nc(Nc2ccccc2)nc(NCc2ccco2)c1[N+](=O)[O-]	0.925%
Cc1[nH]c2ccccc2c1/C=N\NC(=O)Cn1nnc(-c2ccccc2)n1	8.74%
NC(=S)N/N=C/c1ccccc1OCCSc1ccc(Cl)cc1	10.4%
CC(C)CN1CCC(CNC(=O)CCc2nnc(Cc3c[nH]c4ccccc34)o2)CC1	12%
CCCCOc1ccc(C(=O)N/C(=C\c2cccc([N+](=O)[O-])c2)C(=O)OCc2ccco2)cc1	15.4%
COc1ccc(NC(=O)COC(=O)c2c(C)noc2C)c(OC)c1	6.66%
COc1ccc(C(=O)NC(C(=O)OCC(=O)Nc2sccc2C(N)=O)C(C)C)cc1 (centres unmarked)	11.9%
O=C(O)C(=O)O.O=C(c1ccccc1)N1CCN(C2CC3CCC2C3)CC1 (centres unmarked)	5.08%
CCn1c(CSc2nc3ccccc3[nH]2)nc2cc(C(=O)O)ccc21	16.6%
Cc1c(C)c2cc(Cl)c(OCC(=O)N3C[C@H]4C[C@@H](C3)c3cccc(=O)n3C4)cc2oc1=O	12%
COc1ccc(-n2cc(-c3ccccc3)c3c(=S)nc[nH]c32)cc1	5.59%
O=C1CC(NS(=O)(=O)c2ccc([N+](=O)[O-])cc2)CN1c1cccc(F)c1 (centres unmarked)	-22.3%
